Results from the supplement of paper PMC3334620.
The full ranking holds about 33,000 sequences; the median of “E-score (-0.5 to 0.5)” is about -0.035, and the highest 2% start at about 0.35. Some of the results follow.

Biological target: T1, Pdr3 (UniProt P33200)
T1 sequence: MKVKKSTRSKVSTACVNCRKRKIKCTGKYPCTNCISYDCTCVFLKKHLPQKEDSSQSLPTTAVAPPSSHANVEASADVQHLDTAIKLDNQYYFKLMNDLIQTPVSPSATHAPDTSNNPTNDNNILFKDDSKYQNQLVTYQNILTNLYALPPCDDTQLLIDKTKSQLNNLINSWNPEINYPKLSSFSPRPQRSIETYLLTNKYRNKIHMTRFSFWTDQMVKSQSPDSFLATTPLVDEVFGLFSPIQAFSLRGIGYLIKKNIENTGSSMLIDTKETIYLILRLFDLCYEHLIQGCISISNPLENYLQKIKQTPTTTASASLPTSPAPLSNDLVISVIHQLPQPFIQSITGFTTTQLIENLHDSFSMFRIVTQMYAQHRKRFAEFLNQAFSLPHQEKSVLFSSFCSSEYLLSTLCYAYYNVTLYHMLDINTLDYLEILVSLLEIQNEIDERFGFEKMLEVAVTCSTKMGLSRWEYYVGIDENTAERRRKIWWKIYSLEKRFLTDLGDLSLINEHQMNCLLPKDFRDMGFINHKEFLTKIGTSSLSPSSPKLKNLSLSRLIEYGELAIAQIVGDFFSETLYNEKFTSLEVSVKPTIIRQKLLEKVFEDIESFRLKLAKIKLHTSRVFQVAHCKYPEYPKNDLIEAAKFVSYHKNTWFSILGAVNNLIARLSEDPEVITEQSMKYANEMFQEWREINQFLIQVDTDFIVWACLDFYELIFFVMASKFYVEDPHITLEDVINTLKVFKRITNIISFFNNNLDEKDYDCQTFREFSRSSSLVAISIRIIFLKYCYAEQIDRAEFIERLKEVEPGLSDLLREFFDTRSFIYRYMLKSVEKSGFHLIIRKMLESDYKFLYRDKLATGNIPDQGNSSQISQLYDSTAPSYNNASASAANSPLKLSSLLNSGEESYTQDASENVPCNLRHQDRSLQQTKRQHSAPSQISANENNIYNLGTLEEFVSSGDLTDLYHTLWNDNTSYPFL
Test: PBM E-score (8-mer binding enrichment) (E-score (-0.5 to 0.5)); higher = stronger / more preferred TF binding; most listed sequences are background and not binding sites
Conditions: protein concentration: 200 nM; construct: GST-full length
How it was run: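 Full-length yeast transcription factors or their DNA-binding domains, GST-tagged and expressed with PURExpress, were applied at about 100-200 nM to universal all-10-mer Agilent arrays. These arrays had been made double-stranded by primer extension on fresh or once-stripped slides. Detection used fluorescent anti-GST, normalisation used masliner, and E-scores for ungapped eight-base words pooled with reverse complements came from the Universal PBM Analysis Suite.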

Sequence | PBM E-score
ATCGGGGA | 0.206
AGCGGATA | 0.3
CGGCTCTC | 0.0198
AGAGTGAA | -0.047
ACGACCAC | -0.106
AGAGGCGC | -0.182
GGCTAGAA | -0.116
ACGCCCCT | -0.285
CCCCACAA | 0.0254
ACATTACG | 0.00878
ATGCTTGC | -0.127
CGAAGCTA | -0.0672
GCAACAAA | -0.101
CCGACAGA | 0.214
CGCCTCTA | -0.156
CTTTGGGA | -0.195
CTGTACAG | -0.121
AGGATCCT | -0.126
CAGCTCTC | -0.146
CAGCAGTA | -0.159
GCATTACC | -0.00316
TAGGACTA | -0.189
AAATCTTG | -0.0176
AAGACGGG | 0.134
GACCGTAA | 0.057

Sequence | PBM E-score
AGACGGAC | 0.168
ACTGGAAG | -0.276
GCCTAAGC | -0.265
GAACGCCC | 0.191
AATTTGGC | -0.0601
ACGAGCGC | -0.0358
AATTACGT | -0.244
ATGTGATA | -0.248
ATCCCCCA | -0.328
ACATATGG | -0.289
GGCGCAGA | -0.0213
CTACAACC | -0.206
ACGGTAGC | -0.0662
CTCGCTTC | -0.0941
TAGCATAA | -0.2
CACAATAG | -0.0942
GGCCGGAA | 0.431
AACGTCGA | -0.00146
CAAACGTG | -0.0228
CTCCCACC | -0.254
CGTCAGGC | -0.0585
GAGGCCGA | 0.156
GCGTACGA | -0.0757
TAATAGGA | -0.099
CGTCTAGA | -0.017

Sequence | PBM E-score
ACTTTATG | -0.163
GATGCCAA | -0.237
CGTGCTCA | 0.0128
CCACGACG | 0.0387
CGGCCGCC | 0.298
AATTGTGC | -0.0745
CCTATCGA | -0.222
AAGTGCGG | 0.158
CCATTGTC | -0.0439
ATTGGGGG | -0.152
AGCCGTAG | 0.0635
ACATGTTC | -0.0348
GCCAGTAA | -0.0802
ACAATAGA | 0.0562
CGCACTCA | 0.0357
CGATAGAG | -0.211
ATTCCAAA | -0.0872
TGACCACA | -0.206
GGCCGGCA | 0.367
AAACATAG | -0.151
ACTTCTAG | -0.306
CAGCGCCA | -0.189
CAATTATC | 0.167
GTAGCGAA | -0.0192
ATTCGCCG | 0.311

Sequence | PBM E-score
CGCGTAAG | -0.105
CGACACCA | -0.0808
CCGCTCCC | 0.151
AGACTCAC | -0.274
ATAAGTAT | -0.0132
CTTCGTTA | -0.0724
CAGGTTAG | -0.137
ATATCTAG | -0.0524
AGGGTTTA | -0.151
TCTTTAAA | -0.0835
ATTGAGGG | -0.0242
ATCGTTTC | -0.0143
GCAAAGCC | -0.241
AAAACTAG | -0.0811
CCAGAACA | -0.0914
CGGTCTAA | -0.205
CGGGCGTA | 0.0837
TCTTGACA | -0.162
ACTAAGTG | 0.00995
GAGGAGCA | -0.091
GAAGTATA | 0.256
GAGCATGA | -0.127
CCTGCACC | -0.0765
CATTATCC | 0.231
CACGGTAC | 0.103

Sequence | PBM E-score
GCGTTCTA | 0.0812
AAAGATGG | -0.0562
CACAACTG | -0.337
GGCAGCAC | -0.132
CTTGGAAC | -0.0776
CAGATCCG | 0.314
AAATAGCC | 0.0302
GTTCTGAA | -0.122
CGGAGCGC | 0.266
TAGGCTCA | -0.324
CAGCACCA | -0.146
GGTCCGGA | 0.413
CGATGTTC | 0.127
CTATACAA | -0.178
TAATAATA | -0.113
GCGGCGCA | 0.0927
ATTGGTGC | 0.159
GAACAAGA | 0.117
AGGGTGTG | -0.0975
GAGTCGGC | 0.123
CGTCAGAA | -0.204
CTCTTTCA | -0.137
ACCTTCGT | 0.00021
AGTGGCGC | 0.153
GCGTACCA | -0.206

Sequence | PBM E-score
GGCAGACC | -0.264
ACGTTAGT | -0.166
CCCCTTCA | -0.209
TCAGCACA | -0.0715
ACGGATGA | 0.267
ATCCAGAT | -0.0128
GTTCGGAA | 0.431
GGCTAGGA | -0.301
AAATGCTT | -0.177
AATCCGCC | 0.17
CCGATCGG | 0.333
CTCCATGC | -0.0192
ACCAACAG | -0.0458
ACCCCGCC | 0.174
CCCGCCCA | 0.231
CAATCTGA | -0.115
CAGCTCAC | -0.193
CTTTGTCC | 0.152
ACTAGCCT | -0.0641
ACCAGGAA | 0.0196
ACACCCCT | -0.154
AACCTGGT | 0.16
CTCCCCCA | -0.212
CCAGGGGC | -0.195
CTCACCTC | -0.0849

Sequence | PBM E-score
GATGACAA | 0.117
AGGCGCTC | -0.0678
GGCCTCAC | 0.0182
AAACTGTG | -0.024
ATCTGCTG | -0.174
ATATGCGA | -0.0657
GCGAACAC | 0.011
CCTTGCAG | -0.00654
TAACTCAA | -0.0897
CCACATTA | -0.0674
ACGGAGGA | 0.198
CGCGAGTA | 0.103
AACGACGG | 0.211
CCTCGGGC | 0.134
CATTGTGA | 0.0281
ACCCGGTA | 0.215
TGCTTGAA | -0.0679
GAACGCCA | 0.116
GAGGTTCC | 0.262
CCTCTTGC | -0.147
CTGAGGTC | -0.219
CAAGTGAC | -0.195
CTGGGTTA | -0.139
ACTGACTC | -0.237
GATCCATA | 0.11

Sequence | PBM E-score
ATAAGAAT | 0.12
ATACGACA | -0.189
ACATTACA | -0.16
ACCAGTAA | -0.0141
AAAGGCCA | -0.0757
AGCAACGC | -0.00843
CATAGAGC | -0.173
AATGCACC | 0.196
CTGGAAGC | -0.322
AAAGCTAT | 0.0477
AATTAACC | 0.273
GAAGTAAA | 0.127
CTAGGCGC | -0.0403
AGTGAGAC | -0.148
TCATGGGA | -0.117
ACTTACCT | -0.176
CGCCAATA | 0.0969
CGACGGCG | 0.176
AATGCCTA | 0.121
CACTCCAG | 0.0257
ACAGCAGC | -0.0541
CAGCTGAG | -0.082
CTATACCA | -0.246
CGAGTCAG | -0.112
GGACGTAC | -0.145

Sequence | PBM E-score
AGTAGTAT | -0.00713
AACTTGAT | 0.00755
GACCATGA | 0.0513
CTAGTCGA | -0.179
ACCAGACA | -0.161
AAAAAGTC | 0.0911
AACGACAT | -0.00323
CAACGAGC | -0.165
AATCGTGC | 0.28
GTCCAAAA | 0.166
AAGGCTGC | -0.15
CTTTCAGA | -0.0908
TGCAGACA | -0.0945
TGAATCCA | -0.11
CTGAACCA | -0.0752
CATTGCAG | -0.142
CGACGGTA | 0.149
AGTTGACC | 0.195
CCAGAGAC | -0.151
